Reference: the supplement of paper PMC8728848
This is one part of the list.

How the values were obtained:
Assay in all cases: glycan array binding signal (z-score within array); higher = stronger binding
Conditions in all cases: glycan notation: IUPAC condensed, linker removed
GlcNAc(b1-4)GlcNAc = target: GlcNAc(b1-4)GlcNAc
Method in brief: (§1)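 Negative Z-scores can be read as non-binding. The Z-score is calculated within each array and then averaged across arrays of one protein sequence at different concentrations or buffers and across linkers. Arrays, 3228 in all, were curated from the Consortium for Functional Glycomics database and kept only where the protein sequence was available.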

[1] = target: GlcNAc(b1-4)GlcNAc(b1-4)GlcNAc
Method in brief: as §1

[2] = target: GlcNAc(b1-4)GlcNAc(b1-4)GlcNAc(b1-4)GlcNAc(b1-4)GlcNAc
Method in brief: as §1

[3] = target: GlcNAc(b1-4)GlcNAc(b1-4)GlcNAc(b1-4)GlcNAc(b1-4)GlcNAc(b1-4)GlcNAc
Method in brief: as §1

[4] = target: GlcNAc(b1-4)[GlcNAc(b1-6)]GalNAc
Method in brief: as §1

[5] = target: GlcNAc(b1-6)Gal(b1-4)GlcNAc
Method in brief: as §1

GlcNAc(b1-6)GalNAc = target: GlcNAc(b1-6)GalNAc
Method in brief: as §1

GlcNAc3Prop(b1-4)GlcNAc = target: GlcNAc3Prop(b1-4)GlcNAc
Method in brief: as §1

[6] = target: GlcNAc6S(b1-3)Gal(b1-4)GlcNAc
Method in brief: as §1

Kdn(a2-3)Gal(b1-3)GalNAc = target: Kdn(a2-3)Gal(b1-3)GalNAc
Method in brief: as §1

Kdn(a2-3)Gal(b1-3)GlcNAc = target: Kdn(a2-3)Gal(b1-3)GlcNAc
Method in brief: as §1

Kdn(a2-3)Gal(b1-4)Glc = target: Kdn(a2-3)Gal(b1-4)Glc
Method in brief: as §1

Kdn(a2-3)Gal(b1-4)GlcNAc = target: Kdn(a2-3)Gal(b1-4)GlcNAc
Method in brief: as §1

[7] = target: Kdn(a2-3)Gal(b1-4)[Fuc(a1-3)]GlcNAc
Method in brief: as §1

Kdn(a2-6)Gal(b1-4)GlcNAc = target: Kdn(a2-6)Gal(b1-4)GlcNAc
Method in brief: as §1

[8] = target: Man(a1-2)Man(a1-2)Man(a1-3)Man
Method in brief: as §1

[9] = target: Man(a1-2)Man(a1-2)Man(a1-6)[Man(a1-3)]Man
Method in brief: as §1

Man(a1-2)Man(a1-3)Man = target: Man(a1-2)Man(a1-3)Man
Method in brief: as §1

[10] = target: Man(a1-2)Man(a1-3)[Man(a1-2)Man(a1-6)]Man
Method in brief: as §1

[11] = target: Man(a1-2)Man(a1-3)[Man(a1-2)Man(a1-6)]Man(a1-6)[Man(a1-2)Man(a1-2)Man(a1-3)]Man
Method in brief: as §1

[12] = target: Man(a1-2)Man(a1-3)[Man(a1-2)Man(a1-6)]Man(a1-6)[Man(a1-2)Man(a1-2)Man(a1-3)]Man(b1-4)GlcNAc(b1-4)GlcNAc
Method in brief: as §1

[13] = target: Man(a1-2)Man(a1-3)[Man(a1-6)]Man(a1-6)[Man(a1-2)Man(a1-3)]Man(b1-4)GlcNAc(b1-4)GlcNAc
Method in brief: as §1

[14] = target: Man(a1-2)Man(a1-6)[Man(a1-3)]Man(a1-6)[Man(a1-2)Man(a1-2)Man(a1-3)]Man
Method in brief: as §1

[15] = target: Man(a1-2)Man(a1-6)[Man(a1-3)]Man(a1-6)[Man(a1-2)Man(a1-2)Man(a1-3)]Man(b1-4)GlcNAc(b1-4)GlcNAc
Method in brief: as §1

Man(a1-3)[Man(a1-6)]Man = target: Man(a1-3)[Man(a1-6)]Man
Method in brief: as §1

[16] = target: Man(a1-3)[Man(a1-6)]Man(a1-6)[Man(a1-2)Man(a1-3)]Man(b1-4)GlcNAc(b1-4)GlcNAc
Method in brief: as §1

[17] = target: Man(a1-3)[Man(a1-6)]Man(a1-6)[Man(a1-3)]Man
Method in brief: as §1

[18] = target: Man(a1-3)[Man(a1-6)]Man(a1-6)[Man(a1-3)]Man(b1-4)GlcNAc(b1-4)GlcNAc
Method in brief: as §1

[19] = target: Man(a1-3)[Man(a1-6)]Man(b1-4)GlcNAc(b1-4)GlcNAc
Method in brief: as §1

Man(a1-6)Man = target: Man(a1-6)Man
Method in brief: as §1

B1: Eap (Staphylococcus aureus), A0A7L5PYT7 (protein)
chain: MKFKSLITTTLALGVLASTGANFNNNEAAAAAKPLDKSSSSLHHGYSKVHVPYAITVNGTSQNILSSLTFNKNQNISYKDLEDRVKSVLKSDRGISDIDLRLSKQAKYTVYFKNGTKKVIDLKAGIYTADLINTSEIKAININVDTKKQVEDKKKDKANYQVPYTITVNGTSQNILSNLTFNKNQNISYKDLEDKVKSVLESNRGITDVDLRLSKQAKYTVNFKNGTKKVIDLKSGIYTANLINSSDIKSININVDTKKHIENKAKRNYQVPYSINLNGTSTNILSNLSFSNKPWTNYKNLTSQIKSVLKHDRGISEQDLKYAKKAYYTVYFKNGGKRILQLNSKNYTANLVHAKDVKRIEITVKTGTKAKADRYVPYTIAVNGTSTPILSDLKFTGDPRVGYKDISKKVKSVLKHDRGIGERELKYAKKATYTVHFKNGTKKVININSNISQLNLLYVQDIKKIDIDVKTGTKAKADSYVPYTIAVNGTSTPILSKLKISNKQLISYKYLNDKVKSVLKSERGISDLDLKFAKQAKYTVYFKNGKKQVVNLKSDIFTPNLFSAKDIKKIDIDVKQYTKSKKNK
GlcNAc(b1-4)GlcNAc
  glycan array binding signal (z-score): -0.051
[1]
  glycan array binding signal (z-score): -0.402
[2]
  glycan array binding signal (z-score): -0.61
[3]
  glycan array binding signal (z-score): -0.455
[4]
  glycan array binding signal (z-score): -0.36
[5]
  glycan array binding signal (z-score): -0.384
GlcNAc(b1-6)GalNAc
  glycan array binding signal (z-score): -0.132
GlcNAc3Prop(b1-4)GlcNAc
  glycan array binding signal (z-score): -0.616
[6]
  glycan array binding signal (z-score): -0.523
Kdn(a2-3)Gal(b1-3)GalNAc
  glycan array binding signal (z-score): -0.484
Kdn(a2-3)Gal(b1-3)GlcNAc
  glycan array binding signal (z-score): -0.378
Kdn(a2-3)Gal(b1-4)Glc
  glycan array binding signal (z-score): -0.129
Kdn(a2-3)Gal(b1-4)GlcNAc
  glycan array binding signal (z-score): -0.418
[7]
  glycan array binding signal (z-score): 0.774
Kdn(a2-6)Gal(b1-4)GlcNAc
  glycan array binding signal (z-score): -0.601
[8]
  glycan array binding signal (z-score): -0.489
[9]
  glycan array binding signal (z-score): -0.492
Man(a1-2)Man(a1-3)Man
  glycan array binding signal (z-score): -0.199
[10]
  glycan array binding signal (z-score): -0.288
[11]
  glycan array binding signal (z-score): -0.59
[12]
  glycan array binding signal (z-score): 0.009
[13]
  glycan array binding signal (z-score): -0.331
[14]
  glycan array binding signal (z-score): -0.606
[15]
  glycan array binding signal (z-score): -0.456
Man(a1-3)[Man(a1-6)]Man
  glycan array binding signal (z-score): -0.358
[16]
  glycan array binding signal (z-score): -0.146
[17]
  glycan array binding signal (z-score): -0.465
[18]
  glycan array binding signal (z-score): -0.397
[19]
  glycan array binding signal (z-score): -0.309
Man(a1-6)Man
  glycan array binding signal (z-score): 0.115
